Measurements published in patent US20250171404A1, “PCNA INHIBITORS AND USES THEREOF” (CITY OF HOPE, priority 2022, published 2025).

System: γH2A.X
Assay: γH2A.X Western blot (DNA damage marker)
Type: cell-based, human
Conditions: 500 nM AOH1996 or 30 μM R9-caPep

With `COc1cccc(Oc2ccccc2NC(=O)CNC(=O)c2cccc3ccccc23)c1` [AOH1996, N-(2-((2-(3-methoxyphenoxy)phenyl)amino)-2-oxoethyl)-1-naphthamide] as the compound, how does the “induction of γH2A.X in L47V PCNA mutant cell lines” value read?
The value was “confers resistance to induction of the DNA damage marker γH2A.X”.
